According to the supplement of paper PMC12230231:

system: SIVsab (simian immunodeficiency virus of sabaeus monkeys), single-cycle GFP reporter, in CRFK cells; assay: enrichment among infected cells over input (fold); higher = weaker restriction; conditions: library: human / rhesus combinations
Protocol: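 Pools of CRFK cells expressing variants of the TRIM5α v1 loop were challenged with the single-cycle reporter, sorted by GFP and sequenced; mean of two replicates.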

| Sequence | enrichment |
| --- | --- |
| MASGILLNVKEEVTCPICLELLTEPLSLHCGHSFCQACITANHKKSMLYKEGERSCPVCRISYQPENIQPNRHVANIVEKLREVKLSPEEGQKVDHCARHGEKLLLFCQEDSKVICWLCERSQEHRGHHTFLMEEVAQEYHVKLQTALEMLRQKQQEAEKLEADIREEKASWKIQIDYDKTNVSADFEQLREILDWEESNELQNLEKEEEDILKSLTKSETEMVQQTQYMRELISELEHRLQGSMMDLLQGVDGIIKRIENMTLKKPKTFHKNQRRVFRAPDLKGMLDMFRELTDARRYWVDVTLAPNNISHAVIAEDKRQVSSRNPQIMYQARGTLYTFPSLVNFNYCTGVLGSQSITSGKHYWEVDVSKKSAWILGVCAGFQSDAMYNIEQNENYQPKYGYWVIGLQEGVKYSVFQDGSSHTPFAPFIVPLSVIICPDRVGVFVDYEACTVSFFNITNHGFLIYKFSQCSFSKPVFPYLNPRKCTVPMTLCSPSS [rhesus TRIM5α, 332-344 = QARGTLYTFPSLV] | 1.71 ± 0.61 |
| MASGILLNVKEEVTCPICLELLTEPLSLHCGHSFCQACITANHKKSMLYKEGERSCPVCRISYQPENIQPNRHVANIVEKLREVKLSPEEGQKVDHCARHGEKLLLFCQEDSKVICWLCERSQEHRGHHTFLMEEVAQEYHVKLQTALEMLRQKQQEAEKLEADIREEKASWKIQIDYDKTNVSADFEQLREILDWEESNELQNLEKEEEDILKSLTKSETEMVQQTQYMRELISELEHRLQGSMMDLLQGVDGIIKRIENMTLKKPKTFHKNQRRVFRAPDLKGMLDMFRELTDARRYWVDVTLAPNNISHAVIAEDKRQVSSRNPQIMYGAPGTRFQTFTNFNYCTGVLGSQSITSGKHYWEVDVSKKSAWILGVCAGFQSDAMYNIEQNENYQPKYGYWVIGLQEGVKYSVFQDGSSHTPFAPFIVPLSVIICPDRVGVFVDYEACTVSFFNITNHGFLIYKFSQCSFSKPVFPYLNPRKCTVPMTLCSPSS [rhesus TRIM5α, 332-344 = GAPGTRFQTFT] | 0.129 ± 0.18 |
| MASGILLNVKEEVTCPICLELLTEPLSLHCGHSFCQACITANHKKSMLYKEGERSCPVCRISYQPENIQPNRHVANIVEKLREVKLSPEEGQKVDHCARHGEKLLLFCQEDSKVICWLCERSQEHRGHHTFLMEEVAQEYHVKLQTALEMLRQKQQEAEKLEADIREEKASWKIQIDYDKTNVSADFEQLREILDWEESNELQNLEKEEEDILKSLTKSETEMVQQTQYMRELISELEHRLQGSMMDLLQGVDGIIKRIENMTLKKPKTFHKNQRRVFRAPDLKGMLDMFRELTDARRYWVDVTLAPNNISHAVIAEDKRQVSSRNPQIMYQARGTRYTFQTFTNFNYCTGVLGSQSITSGKHYWEVDVSKKSAWILGVCAGFQSDAMYNIEQNENYQPKYGYWVIGLQEGVKYSVFQDGSSHTPFAPFIVPLSVIICPDRVGVFVDYEACTVSFFNITNHGFLIYKFSQCSFSKPVFPYLNPRKCTVPMTLCSPSS [rhesus TRIM5α, 332-344 = QARGTRYTFQTFT] | 1.38 ± 0.097 |
| MASGILLNVKEEVTCPICLELLTEPLSLHCGHSFCQACITANHKKSMLYKEGERSCPVCRISYQPENIQPNRHVANIVEKLREVKLSPEEGQKVDHCARHGEKLLLFCQEDSKVICWLCERSQEHRGHHTFLMEEVAQEYHVKLQTALEMLRQKQQEAEKLEADIREEKASWKIQIDYDKTNVSADFEQLREILDWEESNELQNLEKEEEDILKSLTKSETEMVQQTQYMRELISELEHRLQGSMMDLLQGVDGIIKRIENMTLKKPKTFHKNQRRVFRAPDLKGMLDMFRELTDARRYWVDVTLAPNNISHAVIAEDKRQVSSRNPQIMYQARGTRYTFPTFTNFNYCTGVLGSQSITSGKHYWEVDVSKKSAWILGVCAGFQSDAMYNIEQNENYQPKYGYWVIGLQEGVKYSVFQDGSSHTPFAPFIVPLSVIICPDRVGVFVDYEACTVSFFNITNHGFLIYKFSQCSFSKPVFPYLNPRKCTVPMTLCSPSS [rhesus TRIM5α, 332-344 = QARGTRYTFPTFT] | 0.831 ± 0.1 |
| MASGILLNVKEEVTCPICLELLTEPLSLHCGHSFCQACITANHKKSMLYKEGERSCPVCRISYQPENIQPNRHVANIVEKLREVKLSPEEGQKVDHCARHGEKLLLFCQEDSKVICWLCERSQEHRGHHTFLMEEVAQEYHVKLQTALEMLRQKQQEAEKLEADIREEKASWKIQIDYDKTNVSADFEQLREILDWEESNELQNLEKEEEDILKSLTKSETEMVQQTQYMRELISELEHRLQGSMMDLLQGVDGIIKRIENMTLKKPKTFHKNQRRVFRAPDLKGMLDMFRELTDARRYWVDVTLAPNNISHAVIAEDKRQVSSRNPQIMYGARGTLFQTFVNFNYCTGVLGSQSITSGKHYWEVDVSKKSAWILGVCAGFQSDAMYNIEQNENYQPKYGYWVIGLQEGVKYSVFQDGSSHTPFAPFIVPLSVIICPDRVGVFVDYEACTVSFFNITNHGFLIYKFSQCSFSKPVFPYLNPRKCTVPMTLCSPSS [rhesus TRIM5α, 332-344 = GARGTLFQTFV] | 0.572 ± 0.63 |
| MASGILLNVKEEVTCPICLELLTEPLSLHCGHSFCQACITANHKKSMLYKEGERSCPVCRISYQPENIQPNRHVANIVEKLREVKLSPEEGQKVDHCARHGEKLLLFCQEDSKVICWLCERSQEHRGHHTFLMEEVAQEYHVKLQTALEMLRQKQQEAEKLEADIREEKASWKIQIDYDKTNVSADFEQLREILDWEESNELQNLEKEEEDILKSLTKSETEMVQQTQYMRELISELEHRLQGSMMDLLQGVDGIIKRIENMTLKKPKTFHKNQRRVFRAPDLKGMLDMFRELTDARRYWVDVTLAPNNISHAVIAEDKRQVSSRNPQIMYGAPGTRYTFQSLVNFNYCTGVLGSQSITSGKHYWEVDVSKKSAWILGVCAGFQSDAMYNIEQNENYQPKYGYWVIGLQEGVKYSVFQDGSSHTPFAPFIVPLSVIICPDRVGVFVDYEACTVSFFNITNHGFLIYKFSQCSFSKPVFPYLNPRKCTVPMTLCSPSS [rhesus TRIM5α, 332-344 = GAPGTRYTFQSLV] | 1.85 ± 0.61 |
| MASGILLNVKEEVTCPICLELLTEPLSLHCGHSFCQACITANHKKSMLYKEGERSCPVCRISYQPENIQPNRHVANIVEKLREVKLSPEEGQKVDHCARHGEKLLLFCQEDSKVICWLCERSQEHRGHHTFLMEEVAQEYHVKLQTALEMLRQKQQEAEKLEADIREEKASWKIQIDYDKTNVSADFEQLREILDWEESNELQNLEKEEEDILKSLTKSETEMVQQTQYMRELISELEHRLQGSMMDLLQGVDGIIKRIENMTLKKPKTFHKNQRRVFRAPDLKGMLDMFRELTDARRYWVDVTLAPNNISHAVIAEDKRQVSSRNPQIMYGAPGTRFTFQTFTNFNYCTGVLGSQSITSGKHYWEVDVSKKSAWILGVCAGFQSDAMYNIEQNENYQPKYGYWVIGLQEGVKYSVFQDGSSHTPFAPFIVPLSVIICPDRVGVFVDYEACTVSFFNITNHGFLIYKFSQCSFSKPVFPYLNPRKCTVPMTLCSPSS [rhesus TRIM5α, 332-344 = GAPGTRFTFQTFT] | 1.18 ± 0.063 |
| MASGILLNVKEEVTCPICLELLTEPLSLHCGHSFCQACITANHKKSMLYKEGERSCPVCRISYQPENIQPNRHVANIVEKLREVKLSPEEGQKVDHCARHGEKLLLFCQEDSKVICWLCERSQEHRGHHTFLMEEVAQEYHVKLQTALEMLRQKQQEAEKLEADIREEKASWKIQIDYDKTNVSADFEQLREILDWEESNELQNLEKEEEDILKSLTKSETEMVQQTQYMRELISELEHRLQGSMMDLLQGVDGIIKRIENMTLKKPKTFHKNQRRVFRAPDLKGMLDMFRELTDARRYWVDVTLAPNNISHAVIAEDKRQVSSRNPQIMYQARGTLYTFQTLVNFNYCTGVLGSQSITSGKHYWEVDVSKKSAWILGVCAGFQSDAMYNIEQNENYQPKYGYWVIGLQEGVKYSVFQDGSSHTPFAPFIVPLSVIICPDRVGVFVDYEACTVSFFNITNHGFLIYKFSQCSFSKPVFPYLNPRKCTVPMTLCSPSS [rhesus TRIM5α, 332-344 = QARGTLYTFQTLV] | 0.849 ± 0.058 |
| MASGILLNVKEEVTCPICLELLTEPLSLHCGHSFCQACITANHKKSMLYKEGERSCPVCRISYQPENIQPNRHVANIVEKLREVKLSPEEGQKVDHCARHGEKLLLFCQEDSKVICWLCERSQEHRGHHTFLMEEVAQEYHVKLQTALEMLRQKQQEAEKLEADIREEKASWKIQIDYDKTNVSADFEQLREILDWEESNELQNLEKEEEDILKSLTKSETEMVQQTQYMRELISELEHRLQGSMMDLLQGVDGIIKRIENMTLKKPKTFHKNQRRVFRAPDLKGMLDMFRELTDARRYWVDVTLAPNNISHAVIAEDKRQVSSRNPQIMYGARGTLFTFQTFTNFNYCTGVLGSQSITSGKHYWEVDVSKKSAWILGVCAGFQSDAMYNIEQNENYQPKYGYWVIGLQEGVKYSVFQDGSSHTPFAPFIVPLSVIICPDRVGVFVDYEACTVSFFNITNHGFLIYKFSQCSFSKPVFPYLNPRKCTVPMTLCSPSS [rhesus TRIM5α, 332-344 = GARGTLFTFQTFT] | 1.01 ± 0.47 |
| MASGILLNVKEEVTCPICLELLTEPLSLHCGHSFCQACITANHKKSMLYKEGERSCPVCRISYQPENIQPNRHVANIVEKLREVKLSPEEGQKVDHCARHGEKLLLFCQEDSKVICWLCERSQEHRGHHTFLMEEVAQEYHVKLQTALEMLRQKQQEAEKLEADIREEKASWKIQIDYDKTNVSADFEQLREILDWEESNELQNLEKEEEDILKSLTKSETEMVQQTQYMRELISELEHRLQGSMMDLLQGVDGIIKRIENMTLKKPKTFHKNQRRVFRAPDLKGMLDMFRELTDARRYWVDVTLAPNNISHAVIAEDKRQVSSRNPQIMYGAPGTLFTFQSFVNFNYCTGVLGSQSITSGKHYWEVDVSKKSAWILGVCAGFQSDAMYNIEQNENYQPKYGYWVIGLQEGVKYSVFQDGSSHTPFAPFIVPLSVIICPDRVGVFVDYEACTVSFFNITNHGFLIYKFSQCSFSKPVFPYLNPRKCTVPMTLCSPSS [rhesus TRIM5α, 332-344 = GAPGTLFTFQSFV] | 0.712 ± 0.14 |
| MASGILLNVKEEVTCPICLELLTEPLSLHCGHSFCQACITANHKKSMLYKEGERSCPVCRISYQPENIQPNRHVANIVEKLREVKLSPEEGQKVDHCARHGEKLLLFCQEDSKVICWLCERSQEHRGHHTFLMEEVAQEYHVKLQTALEMLRQKQQEAEKLEADIREEKASWKIQIDYDKTNVSADFEQLREILDWEESNELQNLEKEEEDILKSLTKSETEMVQQTQYMRELISELEHRLQGSMMDLLQGVDGIIKRIENMTLKKPKTFHKNQRRVFRAPDLKGMLDMFRELTDARRYWVDVTLAPNNISHAVIAEDKRQVSSRNPQIMYGARGTLFTFPTFTNFNYCTGVLGSQSITSGKHYWEVDVSKKSAWILGVCAGFQSDAMYNIEQNENYQPKYGYWVIGLQEGVKYSVFQDGSSHTPFAPFIVPLSVIICPDRVGVFVDYEACTVSFFNITNHGFLIYKFSQCSFSKPVFPYLNPRKCTVPMTLCSPSS [rhesus TRIM5α, 332-344 = GARGTLFTFPTFT] | 0.341 ± 0.087 |
| MASGILLNVKEEVTCPICLELLTEPLSLHCGHSFCQACITANHKKSMLYKEGERSCPVCRISYQPENIQPNRHVANIVEKLREVKLSPEEGQKVDHCARHGEKLLLFCQEDSKVICWLCERSQEHRGHHTFLMEEVAQEYHVKLQTALEMLRQKQQEAEKLEADIREEKASWKIQIDYDKTNVSADFEQLREILDWEESNELQNLEKEEEDILKSLTKSETEMVQQTQYMRELISELEHRLQGSMMDLLQGVDGIIKRIENMTLKKPKTFHKNQRRVFRAPDLKGMLDMFRELTDARRYWVDVTLAPNNISHAVIAEDKRQVSSRNPQIMYGARGTRFTFQSFTNFNYCTGVLGSQSITSGKHYWEVDVSKKSAWILGVCAGFQSDAMYNIEQNENYQPKYGYWVIGLQEGVKYSVFQDGSSHTPFAPFIVPLSVIICPDRVGVFVDYEACTVSFFNITNHGFLIYKFSQCSFSKPVFPYLNPRKCTVPMTLCSPSS [rhesus TRIM5α, 332-344 = GARGTRFTFQSFT] | 1.39 ± 0.48 |

± gives the standard deviation of the averaged measurements. Restriction of a single-cycle SIVsab GFP reporter by TRIM5α v1-loop variants in CRFK cells. Human variants: read share among cells still uninfected after two challenges over input, higher = gained restriction. Rhesus variants: share among infected cells over input, higher = lost restriction. Reporter dose not given per row. No active / inactive call per row; the paper calls a change when both replicates lie above its controls (mean + 2 SD of stop or wild-type variants, or the top frameshift score). Residues outside the varied loop are taken from Swiss-Prot. The paper reads the human single-substitution scores as noise; they and the rhesus combinations repeat poorly (rank correlation 0.3 to 0.4), indel scores repeat only for the top variants, rhesus substitutions well (0.9).
